Test results taken from PubChem BioAssay AID686978 (National Center for Advancing Translational Sciences (NCATS), 2013).
Hit rate of the full screen: of about 420,000 compounds, about 64,000 (15%) were called active. This list was built around the results that the source calls inconclusive (neither active nor inactive); the mix of calls is not that of the screen. Calls follow the shape of the dose curve; as a rule, active = well fitted inhibition curve with a large enough effect; inconclusive = small, poorly fitted or top-dose-only effect; inactive = flat fitted curve, though single readings scatter. No potency is given beside an inconclusive call; the fits are too rough.

assay: qHTS for Inhibitors of human tyrosyl-DNA phosphodiesterase 1 (TDP1): qHTS in cells in absence of CPT; settings: DT40 Tdp1-/- hTDP1 cells, no CPT, ATP luminescence, 48 h; activity change, negative = growth inhibition: at 46.2 µM (top of the series) unless noted; also: nearly all actives have a fitted effect of over 55% in size
Summary of the method: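 Stably hTDP1-transfected Tdp1-null chicken DT40 cells were treated with library compounds minus camptothecin and grown for at least 48 hr at 37 °C, after which cellular ATP was quantified by luminescence.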
% is scaled to controls: 0 for no effect and ±100 for the full control effect; potency is read from the fitted curve at half-maximal effect; tags tell the direction and shape of the fitted curve.

Structure (SMILES)	Potency	activity change, negative = growth inhibition
Cc1ccc(-n2ncc3c2CC(C)(C)CC3NC(=O)CCc2ccncc2)cc1 (configuration not stated)	inconclusive [inhibitor, single point]	–
Cc1cccc(C(=O)N2CCC[C@H]2C(=O)N2CCC[C@H]2C(=O)NCc2ccncc2)c1	inactive	–
CCOCCCNC(=O)C(c1ccc(Cl)cc1)N(Cc1ccc2c(c1)OCO2)C(=O)c1ccc(NC(C)=O)cc1 (configuration not stated)	inconclusive [inhibitor, single point]	–
Cc1ccc(CNC(=O)c2ccc(N3Cc4ccccc4Oc4ncccc43)s2)cc1	inconclusive [inhibitor, single point]	–
CCOC(=O)c1oc2ccccc2c1COC(=O)CNC(=O)c1ccc(C)cc1	inactive	–
O=C(c1ccccc1C(=O)N1CCN(c2ccccc2)CC1)N1CCN(c2ccccc2)CC1	inconclusive [inhibitor, single point]	–
O=C(O)c1ccc2c(c1)N(Cc1ccc(F)cc1)C(=O)c1ccccc1S2=O (configuration not stated)	active: 14.6 µM	–
COc1ccccc1CNc1ncnc2c1nc1n2CCCC1	active: 8.2 µM	–
Cc1ccc(SC(CC(=O)c2ccc(F)cc2)C(=O)O)cc1 (configuration not stated)	active: 25.9 µM	–
c1ccc2c(c1)nc(Nc1ccc(N3CCCCC3)cc1)c1nncn12	inconclusive [inhibitor, single point]	–
COc1cccc(NC(=O)CSc2nnc(-c3cc(-c4ccccn4)nc4ccccc34)o2)c1	inconclusive [inhibitor, full curve, poor fit]	–
Cc1ccc(Cl)cc1NC(=O)c1cc(S(=O)(=O)N2CCOCC2)cn1C	inactive	–
Cc1ccc(-c2c(C)n([O-])c3c([n+]2=O)CCCC3)o1	inactive	–
CCCCN(C)C(=O)C1CCC(Cn2c(=O)[nH]c3ccsc3c2=O)CC1 (configuration not stated)	inconclusive [inhibitor, single point]	–
S=C(NCc1ccccc1)NNc1nc2ccccc2[nH]1	inconclusive [inhibitor, single point]	–
Cc1ccc2c(CC(=O)Nc3ccc(S(=O)(=O)N4CCCC(C)C4)cc3)coc2c1 (configuration not stated)	inconclusive [inhibitor, single point]	–
CC1=C(C(=O)Nc2cc(C(=O)NCCC(C)C)ccc2C)SCCO1	inactive	–
O=S(=O)(N=C1C=CC(=NS(=O)(=O)c2ccccc2)c2ccccc21)c1ccccc1	active: 6.51 µM	–
COc1cc(C(=O)NCCNc2nc3cc(C)ccc3cc2C#N)cc(OC)c1OC	active: 16.4 µM	–
COC(=O)c1sccc1NC(=S)N1CCN(c2cccc(C)c2C)CC1	active: 23.1 µM	–
O=C(NCCc1ccccc1)c1ccc2c(c1)CCN2S(=O)(=O)c1ccc(Cl)cc1	inconclusive [inhibitor, single point]	–
Cc1ccc(S(=O)(=O)NCC(c2ccco2)N2CCc3ccccc3C2)cc1 (configuration not stated)	inconclusive [inhibitor, partial curve, poor fit]	–
CCN1C(=O)/C(=C/N(C)c2ccccc2)OC1=S	inconclusive [inhibitor, partial curve]	–
COc1ccc(CCC(=O)N/N=C/c2ccc3c(c2)OCO3)cc1	inactive	–

Structure (SMILES)	Potency	activity change, negative = growth inhibition
Cc1ccc(S(=O)(=O)Nc2ccccc2N2CCOCC2)cc1	inconclusive [inhibitor, single point]	–
CC1CCN(S(=O)(=O)c2ccc3c(c2)N(CC(=O)NCCN(C)C)C(=O)CS3)CC1	inactive	–
C/C(=N/NS(=O)(=O)c1ccc(CC(C)C)cc1)c1ccncc1	inconclusive [inhibitor, partial curve]	–
Cc1ccc(NC(=O)C2=C(C(=O)O)CCCC2)cc1F	inactive	–
Cc1ccc(S(=O)(=O)Oc2ccccc2/C=N/NC(=O)c2c(Cl)cnn2C)cc1	inconclusive [inhibitor, single point]	–
c1nc2ccc(Cc3ccc4nc[nH]c4c3)cc2[nH]1	inconclusive [inhibitor, single point]	–
CC(=O)NCCCc1c[nH]c2ccc(Cl)cc12	inactive	–
COc1ccccc1NC(=O)Cc1csc(NC(=O)c2ccccc2)n1	inconclusive [inhibitor, single point]	–
Cc1ccc(CS(=O)(=O)Cc2ccc(C(=O)NC3CCCCCC3)o2)cc1	inconclusive [inhibitor, partial curve]	–
CCCCCCNC(=O)N1C/C=C\C(c2ccc(OC)cc2)N(Cc2ccc(F)cc2)C(=O)C1 (configuration not stated)	active: 23.1 µM	–
O=C(Cn1ccc(NC(=O)OCc2ccccc2)nc1=O)NCCc1c[nH]c2ccccc12	inconclusive [inhibitor, single point]	–
Cc1cnc(C(=O)OCc2c(C)cc(C(C)(C)C)cc2C)cn1	–	inconclusive: -30.8% [inhibitor]
CN(C)c1ccc(-c2ccnc3c2CC(C)(C(=O)NCc2cccs2)O3)cc1 (configuration not stated)	active: 13 µM	–
OC(c1ccccc1)c1nc2ccccc2n1Cc1c(F)cccc1Cl (configuration not stated)	inconclusive [inhibitor, single point]	–
Fc1ccc(-n2nc(-c3ccccc3)c3cnc4ccccc4c32)cc1Cl	inactive	–
O=C(NCCc1c[nH]c2ccccc12)c1cnccn1	inactive	–
Cc1cccc(NC(=S)N(CCN(C)C)Cc2cc3cccc(C)c3[nH]c2=O)c1	active: 6.51 µM	–
CCOc1ccc(-c2cc3c(=O)n(CC(=O)NCc4ccccc4)ccn3n2)cc1	inactive	–
COc1ccc(C(=O)OCc2ccccc2F)cc1S(=O)(=O)N1CCCC1	inconclusive [inhibitor, single point]	–
OC(c1ccc(Cl)c(Cl)c1)c1ncc(-c2cccc(F)c2)[nH]1 (configuration not stated)	inconclusive [inhibitor, single point]	–
CC(/C=C1\SC(=O)N(CC(=O)Nc2cccc(O)c2)C1=O)=C\c1ccccc1	inconclusive [inhibitor, single point]	–
COc1ccc(CNC(=O)CNS(=O)(=O)c2ccc(Cl)cc2)cc1	inactive	–
O=C(Nc1cccc(Cl)c1Cl)c1ccccc1NC(=O)C1CC=CCC1C(=O)O (configuration not stated)	inconclusive [inhibitor, partial curve]	–
